The list shows a part of the results.
system: T1, Caupolican (Caup) homeodomain DNA-binding domain; assay: PBM E-score (8-mer, recovered from the published 9-mer minima) (E-score (dimensionless, -0.5 to 0.5)); Drosophila protein; higher = stronger relative binding preference, active = 0.31 or more
T1 sequence: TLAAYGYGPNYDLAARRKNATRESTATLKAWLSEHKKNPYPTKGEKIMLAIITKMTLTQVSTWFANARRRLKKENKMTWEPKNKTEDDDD
Summary of the method: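 Caup's homeodomain DNA-binding domain (residues 214-303) was produced by in vitro transcription and translation and applied at 100 nM to custom-designed protein binding microarrays. Each value is an enrichment score giving relative binding preference for a short DNA word; higher means stronger. Published 9-mer scores were the minimum of their two constituent 8-mer scores, and the 8-mer values were recovered from those minima. A cutoff of 0.31 marks candidate binding sequences.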

PBM E-score, inactive:
CTTTAAAA -0.00403
AATCTGAG 0.0132
ATGGGCGC -0.24
ACGGGTTG -0.0634
GGTAAGCA -0.0386
AAACCCCT -0.173
ATTAGAAC 0.112
TCTGTTAA 0.173
TCAGGGCA -0.0124
TGCATCCA 0.0126
ACTACGCT 0.0173
GCACACCC -0.143
CCGAAGTC -0.1
CTACGCCA -0.123
CAACTTAG 0.107
AAACGGAG -0.155
GATTGTAA 0.205
AAGCTATT 0.0401
ACGACGAG 0.0889
CTGTTATA 0.187
CCTGCGTC -0.102
CAACGGGC -0.114
AAATTTAG 0.0333
GCCAACGA -0.111
CCGGAGCG -0.225
GACGGTCC -0.265
ACAAGTTG 0.286
GATGTTCA 0.303
AGAGATCT -0.0272
AGGCACAA -0.0205
GAACCGTC -0.0799
ACGGGCTC -0.222
GAGTTACC -0.0268
ACGGTTCA -0.106
CAGAGCTC -0.22
GCACCAAC -0.125
GCGCGACA 0.0595
CAGCATAC 0.0483
CCCCACTA -0.181
AGACGCGG -0.112
GCCACTTA -0.0381
ATCTATTG 0.0391
GAGGTGCC -0.193
GGGAATGA 0.0175
AAAAACTG 0.0692
GAGGCTAA 0.0337
CGGCAGGA -0.238
CGGTGGCC -0.244
ACGCTAGT -0.0382
TAGATGAA 0.0677
CCCGCAAC -0.109
CTACTGCC -0.116
GCCCTTGA -0.0834
CGGAAGAA -0.109
CAACCTCA -0.0651
CAAATTGA 0.0427
AAGCTGCA -0.0901
AAGCCTCT -0.136
AAGGTGAG -0.107
AAGCACCC -0.131
CCGAATTA 0.00196
CACGGTTC 0.0169
ACTACGTC 0.021
GATCGTCC -0.0919
CTTGCCCC -0.243
ATATCTTC 0.0704
GAATGGGA -0.0755
TTGTTAAA 0.23
AGAACAGG 0.139
CATAATCC 0.0451
GCGCAGTA -0.0445
CTGAGGAC -0.0428
GGTGTCGA 0.0872
ACATCTGC 0.177
ACCTACCT -0.066
ATGACGCC -0.118
AAATATGA 0.164
ATCGAACG 0.045
GGCTAGCA -0.132
CCCGTGCG -0.175
CATGACCA 0.139
ACCAGATC -0.0112
CCTTGAGA -0.00291
CTATGCGA -0.0581
CCAATCAA 0.0187
AGGGTAAA 0.0667
ACATAGTA 0.28
AACTTAAT 0.145
AGGGCAAT -0.143
AAGGCGGC -0.113
CCAGTATC -0.0407
CGATCCTA -0.0295
AGGGAACC -0.191
GAGCTCGC -0.25
GAGTGTAA 0.11
ACAACGCG 0.0708
GGAACTAA -0.00107
AGCCAGAT -0.0819
AGGCAAAA -0.0175
CTGACGGC -0.217
AATTACGC 0.0512
ACAAGTTC 0.233
AGCTGTCG -0.00815
CCAATGAG -0.0766

PBM E-score, active:
ACATGAGA 0.344
AACAAACA 0.338
TACGAACA 0.31
AACATATG ≥ 0.356

PBM E-score, ≥ -0.0483:
AGCACGCA

PBM E-score, ≥ 0.126:
ATCACAGA

PBM E-score, ≥ 0.0674:
AAGGAAAA
